The supplement of paper PMC4967469

What follows are cell lines tested with N.N.[Cl][Pt][Cl] [Cisplatin] (assay: Viability of human cancer cell lines after 72 h of drug (GDSC screen)). Conditions: top dose inferred.
Description: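 Human cancer cell lines in 384-well plates, medium with 10% serum, drug for 72 h over a 256-fold dose range (nine 2-fold or five 4-fold steps up to the top dose). Adherent lines were fixed and stained with the nucleic acid dye Syto60, suspension lines read with resazurin; signal relative to control wells, capped at 0 and 100%. One two-parameter sigmoid per drug and line, fitted in a mixed model over all curves with the slope shared within a line.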
Cell Line “FLO-1 (oesophagus, adherent, top dose 10 µM)” has an AUC of 0.873 and an IC50 greater than 10 µM.
With “FTC-133 (thyroid, adherent, top dose 10 µM)” the AUC was 0.806 and the IC50 was 5.71 µM.
Work on “FU97 (stomach, adherent, top dose 10 µM)” yielded an AUC of 0.945 and an IC50 greater than 10 µM.
Cell Line “FU-OV-1 (ovary, adherent, top dose 10 µM)” has an AUC of 0.934 and an IC50 greater than 10 µM.
For “Farage (B-cell lymphoma, suspension, top dose 10 µM)”, the AUC was 0.98 and the IC50 was greater than 10 µM.
“G-292 Clone A141B1 (osteosarcoma, adherent, top dose 10 µM)” gave an AUC of 0.795 and an IC50 of 8.35 µM.
Cell Line “G-361 (melanoma, adherent, top dose 10 µM)” has an AUC of 0.894 and an IC50 greater than 10 µM.
“G-401 (kidney, adherent, top dose 10 µM)” showed an AUC of 0.85 and an IC50 of 8.74 µM.
“G-402 (soft tissue, adherent, top dose 10 µM)” showed an AUC of 0.768 and an IC50 of 5 µM.
Cell Line “G-MEL (melanoma, adherent, top dose 10 µM)” has an AUC of 0.662 and an IC50 of 1.75 µM.
“GA-10 (Burkitt lymphoma, suspension, top dose 10 µM)” gave an AUC of 0.947 and an IC50 greater than 10 µM.
With “GAK (melanoma, adherent, top dose 10 µM)” the AUC was 0.989 and the IC50 was greater than 10 µM.
Work on GB-1 (glioma, adherent, top dose 10 µM) yielded an AUC of 0.671 and an IC50 of 2.05 µM.
Work on “GCIY (stomach, adherent, top dose 10 µM)” yielded an AUC of 0.922 and an IC50 greater than 10 µM.
Cell Line “GDM-1 (acute myeloid leukaemia, suspension, top dose 10 µM)” has an AUC of 0.98 and an IC50 greater than 10 µM.
With GI-1 (glioma, adherent, top dose 10 µM) the AUC was 0.679 and the IC50 was 1.93 µM.
“GI-ME-N (neuroblastoma, adherent, top dose 10 µM)” gave an AUC of 0.869 and an IC50 greater than 10 µM.
“GMS-10 (glioma, adherent, top dose 10 µM)” showed an AUC of 0.901 and an IC50 greater than 10 µM.
For “GOTO (neuroblastoma, adherent, top dose 10 µM)”, the AUC was 0.676 and the IC50 was 2.09 µM.
“GR-ST (lymphoblastic leukaemia, suspension, top dose 10 µM)” gave an AUC of 0.83 and an IC50 of 8.21 µM.
“GRANTA-519 (B-cell lymphoma, suspension, top dose 10 µM)” showed an AUC of 0.897 and an IC50 greater than 10 µM.
“GT3TKB (stomach, adherent, top dose 10 µM)” showed an AUC of 0.847 and an IC50 of 6.07 µM.
In the case of H4 (glioma, adherent, top dose 10 µM), the AUC is reported as 0.799 and the IC50 is reported as 4.71 µM.
Cell Line “H9 (lymphoid neoplasm, suspension, top dose 10 µM)” has an AUC of 0.903 and an IC50 of 9.09 µM.
“H290 (mesothelioma, adherent, top dose 10 µM)” gave an AUC of 0.832 and an IC50 of 5.64 µM.
With “H513 (mesothelioma, semi-adherent, top dose 10 µM)” the AUC was 0.865 and the IC50 was greater than 10 µM.
Cell Line “H2369 (mesothelioma, adherent, top dose 10 µM)” has an AUC of 0.788 and an IC50 of 4.55 µM.
Work on “H2373 (mesothelioma, adherent, top dose 10 µM)” yielded an AUC of 0.961 and an IC50 greater than 10 µM.
“H2461 (mesothelioma, adherent, top dose 10 µM)” showed an AUC of 0.942 and an IC50 greater than 10 µM.
“H2595 (mesothelioma, adherent, top dose 10 µM)” gave an AUC of 0.928 and an IC50 greater than 10 µM.
“H2722 (mesothelioma, adherent, top dose 10 µM)” showed an AUC of 0.899 and an IC50 greater than 10 µM.
“H2731 (mesothelioma, adherent, top dose 10 µM)” showed an AUC of 0.904 and an IC50 greater than 10 µM.
In the case of “H2795 (mesothelioma, adherent, top dose 10 µM)”, the AUC is reported as 0.93 and the IC50 is reported as greater than 10 µM.
Cell Line “H2869 (mesothelioma, adherent, top dose 10 µM)” has an AUC of 0.925 and an IC50 greater than 10 µM.
“H3118 (head and neck, adherent, top dose 10 µM)” showed an AUC of 0.886 and an IC50 greater than 10 µM.
Work on “H3255 (lung adenocarcinoma, adherent, top dose 10 µM)” yielded an AUC of 0.957 and an IC50 greater than 10 µM.
“HA7-RCC (kidney, adherent, top dose 10 µM)” was tested, and the AUC was 0.855 and the IC50 was 9.31 µM.
For “HAL-01 (lymphoblastic leukaemia, suspension, top dose 10 µM)”, the AUC was 0.849 and the IC50 was 6.19 µM.
For “HARA (lung squamous cell carcinoma, adherent, top dose 10 µM)”, the AUC was 0.893 and the IC50 was greater than 10 µM.
“HC-1 (hairy cell leukaemia, suspension, top dose 10 µM)” gave an AUC of 0.968 and an IC50 greater than 10 µM.
“HCC38 (breast, adherent, top dose 10 µM)” was tested, and the AUC was 0.971 and the IC50 was greater than 10 µM.
With “HCC70 (breast, adherent, top dose 10 µM)” the AUC was 0.878 and the IC50 was 9.86 µM.
Work on “HCC202 (breast, adherent, top dose 10 µM)” yielded an AUC of 0.91 and an IC50 greater than 10 µM.
“HCC1143 (breast, adherent, top dose 10 µM)” was tested, and the AUC was 0.932 and the IC50 was greater than 10 µM.
Cell Line “HCC1187 (breast, suspension, top dose 10 µM)” has an AUC of 0.897 and an IC50 greater than 10 µM.
“HCC1395 (breast, adherent, top dose 10 µM)” was tested, and the AUC was 0.85 and the IC50 was greater than 10 µM.
“HCC1419 (breast, adherent, top dose 10 µM)” showed an AUC of 0.807 and an IC50 of 8.02 µM.
In the case of “HCC1428 (breast, adherent, top dose 10 µM)”, the AUC is reported as 0.987 and the IC50 is reported as greater than 10 µM.
In the case of “HCC1500 (breast, adherent, top dose 10 µM)”, the AUC is reported as 0.987 and the IC50 is reported as greater than 10 µM.
“HCC1569 (breast, adherent, top dose 10 µM)” gave an AUC of 0.969 and an IC50 greater than 10 µM.
“HCC1937 (breast, adherent, top dose 10 µM)” gave an AUC of 0.91 and an IC50 greater than 10 µM.
“HCC1954 (breast, adherent, top dose 10 µM)” gave an AUC of 0.961 and an IC50 greater than 10 µM.
“HCC2157 (breast, suspension, top dose 10 µM)” gave an AUC of 0.936 and an IC50 greater than 10 µM.
Work on “HCC2218 (breast, suspension, top dose 10 µM)” yielded an AUC of 0.975 and an IC50 greater than 10 µM.
“HCC2998 (large intestine, adherent, top dose 10 µM)” showed an AUC of 0.915 and an IC50 greater than 10 µM.
In the case of “HCC-15 (lung squamous cell carcinoma, adherent, top dose 10 µM)”, the AUC is reported as 0.943 and the IC50 is reported as greater than 10 µM.
Work on “HCC-44 (lung adenocarcinoma, adherent, top dose 10 µM)” yielded an AUC of 0.719 and an IC50 of 2.56 µM.
Cell Line “HCC-56 (large intestine, adherent, top dose 10 µM)” has an AUC of 0.966 and an IC50 greater than 10 µM.
“HCC-78 (lung adenocarcinoma, adherent, top dose 10 µM)” showed an AUC of 0.915 and an IC50 greater than 10 µM.
“HCC-366 (non-small cell lung carcinoma, adherent, top dose 10 µM)” showed an AUC of 0.793 and an IC50 of 4.77 µM.
“HCC-827 (lung adenocarcinoma, adherent, top dose 10 µM)” was tested, and the AUC was 0.838 and the IC50 was 8.29 µM.
“HCT-15 (large intestine, adherent, top dose 10 µM)” gave an AUC of 0.917 and an IC50 greater than 10 µM.
“HD-MY-Z (Hodgkin lymphoma, adherent, top dose 10 µM)” was tested, and the AUC was 0.912 and the IC50 was greater than 10 µM.
Work on “HDLM-2 (Hodgkin lymphoma, suspension, top dose 10 µM)” yielded an AUC of 0.962 and an IC50 greater than 10 µM.
Work on “HDQ-P1 (breast, adherent, top dose 10 µM)” yielded an AUC of 0.94 and an IC50 greater than 10 µM.
In the case of “HEC-1 (endometrium, adherent, top dose 10 µM)”, the AUC is reported as 0.904 and the IC50 is reported as greater than 10 µM.
“HGC-27 (stomach, adherent, top dose 10 µM)” was tested, and the AUC was 0.865 and the IC50 was 6.71 µM.
In the case of “HH (T-cell leukaemia, suspension, top dose 10 µM)”, the AUC is reported as 0.871 and the IC50 is reported as greater than 10 µM.
With “HL-60 (acute myeloid leukaemia, suspension, top dose 10 µM)” the AUC was 0.859 and the IC50 was 7 µM.
With “HMV-II (melanoma, adherent, top dose 10 µM)” the AUC was 0.926 and the IC50 was greater than 10 µM.
“HN (head and neck, adherent, top dose 10 µM)” was tested, and the AUC was 0.855 and the IC50 was 7.23 µM.
In the case of “HO-1-u-1 (head and neck, adherent, top dose 10 µM)”, the AUC is reported as 0.932 and the IC50 is reported as greater than 10 µM.
In the case of “HOP-62 (lung adenocarcinoma, adherent, top dose 10 µM)”, the AUC is reported as 0.8 and the IC50 is reported as 4.84 µM.
“HOP-92 (large cell lung carcinoma, adherent, top dose 10 µM)” gave an AUC of 0.716 and an IC50 of 2.85 µM.
In the case of “HOS (osteosarcoma, adherent, top dose 10 µM)”, the AUC is reported as 0.749 and the IC50 is reported as 2.79 µM.
“HSC-2 (head and neck, adherent, top dose 10 µM)” showed an AUC of 0.944 and an IC50 greater than 10 µM.
“HSC-4 (head and neck, adherent, top dose 10 µM)” gave an AUC of 0.643 and an IC50 of 1.78 µM.
“HSC-39 (stomach, suspension, top dose 10 µM)” gave an AUC of 0.96 and an IC50 greater than 10 µM.
“HT55 (large intestine, adherent, top dose 10 µM)” showed an AUC of 0.973 and an IC50 greater than 10 µM.
Work on “HT (B-cell lymphoma, suspension, top dose 10 µM)” yielded an AUC of 0.986 and an IC50 greater than 10 µM.
HT-3 (cervix, adherent, top dose 10 µM) was tested, and the AUC was 0.8 and the IC50 was 4.94 µM.
“HT-115 (large intestine, adherent, top dose 10 µM)” showed an AUC of 0.961 and an IC50 greater than 10 µM.
“HT-1080 (fibrosarcoma, adherent, top dose 10 µM)” was tested, and the AUC was 0.873 and the IC50 was 7.89 µM.

Lines with a small IC50 respond at low doses; where the fit passes the top or lowest dose, that dose stands as a limit. For AUC the same curve is integrated over the 256-fold range of doses and scaled to a fraction; it is 1 without any effect and falls as sensitivity rises. A top dose marked as inferred was calculated from the reported fits.
